These molecules were tested on MYC (assay: cells). Settings: Homo sapiens, MV4-11, 4 h, read-out: Myc IC50 (μM).
Work on `CC(=O)N1CCc2c(c(N3C[C@H](C)Cc4cc(-c5cnn(C)c5)c(C(F)F)cc43)nn2C2CCOCC2)C1` [Example 241, (R)-1-[3-[7-(difluoromethyl)-3-methyl-6-(1-methylpyrazol-4-yl)-3,4-dihydro-2H-quinolin-1-yl]-1-tetrahydropyran-4-yl-6,7-dihydro-4H-pyrazolo[4,3-c]pyridin-5-yl]ethanone] yielded an IC50 of 0.02 µM. `CC(=O)N1CCc2c(c(N3CCCc4cc(-c5cnn(C)c5)c(Cl)cc43)nn2[C@H]2CCOC2)C1` [Example 125, 1-[3-[7-chloro-6-(1-methylpyrazol-4-yl)-3,4-dihydro-2H-quinolin-1-yl]-1-[(3S)-tetrahydrofuran-3-yl]-6,7-dihydro-4H-pyrazolo[4,3-c]pyridin-5-yl]ethanone] gave an IC50 of 0.259 µM. For `CC(=O)N1CCc2c(c(Nc3ccc(-c4cnn(C)c4)c(F)c3F)nn2C2CCOC2)C1` (centres unmarked) [Example 278, 1-[3-[2,3-difluoro-4-(1-methylpyrazol-4-yl)anilino]-1-tetrahydrofuran-3-yl-6,7-dihydro-4H-pyrazolo[4,3-c]pyridin-5-yl]ethanone], the IC50 was 0.37 µM. Molecule `CC(=O)N1CCc2c(c(N3CCCc4cc(-c5ccncc5Cl)c(C(F)F)cc43)nn2C2CCOCC2)C1` [Example 315, 1-[3-[6-(3-chloro-4-pyridyl)-7-(difluoromethyl)-3,4-dihydro-2H-quinolin-1-yl]-1-tetrahydropyran-4-yl-6,7-dihydro-4H-pyrazolo[4,3-c]pyridin-5-yl]ethanone] has an IC50 of 0.022 µM. `CNC(=O)N1CCc2c(c(N3CCCc4cc(-c5cnn(C)c5)c(C(F)F)cc43)nn2[C@@H](C)C2CC2)C1` [Example 382, (S)-1-(1-cyclopropylethyl)-3-(7-(difluoromethyl)-6-(1-methyl-1H-pyrazol-4-yl)-3,4-dihydroquinolin-1(2H)-yl)-N-methyl-1,4,6,7-tetrahydro-5H-pyrazolo[4,3-c]pyridine-5-carboxamide] gave an IC50 of 0.007 µM. In the case of `CC(=O)N1CCc2c(c(N(C)c3ccc(-c4cn(C)nc4C(F)(F)F)cc3)nn2C)C1` [Example 224, 1-[1-methyl-3-[N-methyl-4-[1-methyl-3-(trifluoromethyl)pyrazol-4-yl]anilino]-6,7-dihydro-4H-pyrazolo[4,3-c]pyridin-5-yl]ethanone], the IC50 is reported as > 4 µM. Molecule `CC(=O)N1CCc2c(c(N3CCCc4cc(-c5cnn(C)c5)c(OC(F)(F)F)cc43)nn2[C@H]2CCOC2)C1` [Example 149, 1-[3-[6-(1-methylpyrazol-4-yl)-7-(trifluoromethoxy)-3,4-dihydro-2H-quinolin-1-yl]-1-[(3S)-tetrahydrofuran-3-yl]-6,7-dihydro-4H-pyrazolo[4,3-c]pyridin-5-yl]ethanone] has an IC50 of 0.004 µM. Work on `CC(=O)N1CCc2c(c(Nc3ccc(-c4cncc(S(C)(=O)=O)c4)cc3)nn2C)C1` [Example 158, 3-[7-cyano-6-(1-methylpyrazol-4-yl)-3,4-dihydro-2H-quinolin-1-yl]-N-methyl-1-[(3S)-tetrahydrofuran-3-yl]-6,7-dihydro-4H-pyrazolo[4,3-c]pyridine-5-carboxamide] yielded an IC50 of 1.86 µM. `CC(=O)N1CCc2c(c(N3CCCc4cc(-c5cnn(C)c5)c(C#N)cc43)nn2[C@H]2CCOC2)C1` [Example 126, 1-[5-acetyl-1-[(3S)-tetrahydrofuran-3-yl]-6,7-dihydro-4H-pyrazolo[4,3-c]pyridin-3-yl]-6-(1-methylpyrazol-4-yl)-3,4-dihydro-2H-quinoline-7-carbonitrile] gave an IC50 of 0.087 µM. In the case of `CC(=O)N1CCc2c(c(Nc3ccc(-c4cncs4)cc3)nn2C)C1` [Example 110, 1-[3-[3-methyl-6-(1-methylpyrazol-4-yl)-3,4-dihydro-2H-quinolin-1-yl]-1-tetrahydrofuran-3-yl-6,7-dihydro-4H-pyrazolo[4,3-c]pyridin-5-yl]ethanone], the IC50 is reported as 0.63 µM. `CC(=O)N1CCc2c(c(N3CCc4cc(-c5cn(C)nc5C#N)ccc43)nn2C2CCOC2)C1` (centres unmarked) [Example 187, 4-[1-(5-acetyl-1-tetrahydrofuran-3-yl-6,7-dihydro-4H-pyrazolo[4,3-c]pyridin-3-yl)indolin-5-yl]-1-methyl-pyrazole-3-carbonitrile] showed an IC50 of 0.284 µM.

From patent US9763922B2 (priority 2014, dated 2017)
